T1: UNK ZnF1-3 (human, UniProt Q9C0B0 31-174)
T1 sequence: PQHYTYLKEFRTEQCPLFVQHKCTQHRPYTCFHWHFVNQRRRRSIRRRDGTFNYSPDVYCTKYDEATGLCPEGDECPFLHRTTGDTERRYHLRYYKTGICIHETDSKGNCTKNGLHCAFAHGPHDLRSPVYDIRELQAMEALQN

B1: chr12:15822463:15822464:-_ENSMUSG00000020601_ENSMUST00000020922|mus_mus|motif|central (ssRNA)
RNA: GGGAGUUCUACAGUCCGACGAUCAAAAGGAUCAAGAAGGGAGGGGACCCGUCUGGGGCUCCGUGGAGGAAGAGUUAAGAACGGGCCCCCAGAUGGGCGCUGCAGGGCUGGUCCCCGGCUGCGAGCCCCGCUCCCGGGGGUGCUCAACAGAGGAUUGAGCAUCA
B2: chr2:216981417:216981418:+_ENSG00000079246_ENST00000392132|hu_hu|hu_hu_hu_mus_True|68_108 (ssRNA)
RNA: GGGAGUUCUACAGUCCGACGAUCCUGAUACUGAUCCUUGCCAGCAAGGGCAUUAUCAGUGCCAUCUGUACCAAACAGGACUAACGCAAUCUCAUCUUUGCUCUCCGAAAAUACCUGUCGUUGGACAAACAUAGUCAUCACUUUCAACAGAGGAUUGAGCAUCA
B3: chr14:31077228:31077229:+_ENSG00000092140_ENST00000206595|hu_mus|FALSE|FALSE (ssRNA)
RNA: GGGAGUUCUACAGUCCGACGAUCAGUUGCAGAAUCUAUCUUGAUUAUAAUCUGUGCAACAUCAAUGUCUGAUACAUCAUCCAAAGUUGGUAGAGUAUUUUCUGGUCCAUAAGCAAGGCAGUUAAACAAGGUUUCAGAAAAGAACAACAGAGGAUUGAGCAUCA
B4: chr3:131208901:131208902:-_ENSG00000114686_ENST00000264995|hu_hu|FALSE|FALSE (ssRNA)
RNA: GGGAGUUCUACAGUCCGACGAUCUGUUAUAUUAAAGAUUUUAACUGUCUGUUUCGGCGGCAAUCCAAGUUCCCGGUAAAAUUCCAAUAUGGAUGUAGCUUUACGAAAACGUGAUACAGUUUUUCCUCCUACAGACAGGGUUGCCAACAGAGGAUUGAGCAUCA
B5: chr20:52831857:52831858:+_ENSG00000101132_ENST00000441080|hu_mus|FALSE|FALSE (ssRNA)
RNA: GGGAGUUCUACAGUCCGACGAUCCAGCAUGAUGUCAUCACAGGCGUCCUCUAAGUUCUGGAGAUGUUUCUUCUUCACUUCUAUUUCCUCCUUUAGCUCUGUGAUUCGACUCGUAUUCCGAGCAAAUUUGUUUAUUUUUUGCUGCAACAGAGGAUUGAGCAUCA
B6: chr3:41268740:41268741:+_ENSG00000168036_ENST00000349496|perfect_dup|FALSE|FALSE (ssRNA)
RNA: GGGAGUUCUACAGUCCGACGAUCCACUCUGCUUGUGGUCCACAGUAGUUUUUCGUAAGUAUAGGUCCUCAUUAUAUUUACUAAAGCUUGGGGUCCACCACUAGCCAGUAUGAUGAGCUUGCUUUCUUGGUUGCCAUAAGCUAACAACAGAGGAUUGAGCAUCA
B7: 186303460_186303580_5415_CDS_ENSG00000047410_ENST00000367478|human|control|control (ssRNA)
RNA: GGGAGUUCUACAGUCCGACGAUCCUGUGAUUCCACUUGUGUAGUGGGCAUCACUGUAGCUGUUGGGGUAGUAGUGGGAUUUGUAACAGUUGCAGGUGUAACCAUUGGGCGGAUACUAGCCCUGGGUGUUGACUUAUUUCCAGCCAACAGAGGAUUGAGCAUCA
B8: chr12:16048344:16048345:+_ENSG00000023734_ENST00000419869|hu_hu|motif|central (ssRNA)
RNA: GGGAGUUCUACAGUCCGACGAUCAGAUCGUCCAUAAGUUAUAACCAAAAUCUCUCCCUCAGGAAUAUAUUCCAUACGGCGGACAGACAUAUUAAAAUUUAGAGAUUUCACUUCUGUCAUAGUAGCAUGAUCCCAAAGUCGAACCAACAGAGGAUUGAGCAUCA
B9: 64147695_64148393_1994_CDS_ENSG00000143952_ENST00000409558|human|control|control (ssRNA)
RNA: GGGAGUUCUACAGUCCGACGAUCGAAUGUUUCCAUUAAUCUAGAAAGUGUUAUGAAUUCCAUGGAAUUUAGCUUCUCAAGAAAACCAUCCUUUGCUCUUGACAUGAGAAAUUUGACAGCUCGAUCAUGGCAUAUAUCUGAGGCCAACAGAGGAUUGAGCAUCA
B10: chrX:153608698:153608699:+_ENSG00000102119_ENST00000428228|hu_mus|motif|central (ssRNA)
RNA: GGGAGUUCUACAGUCCGACGAUCUAAAGAAGAGAAAAUGUCAUCACGCACCUGGUGAUGGAAGGUAUCAGCAUCGGCAAGUGAGGUCCCCGGCUGGCGGAAGCUCUUGGACAUGCCCACAGACUCAGGCUCCCCGUAUGUCUUCAACAGAGGAUUGAGCAUCA
B11: 107180992_107181112_970_3pUTR_ENSMUSG00000047496_ENSMUST00000058688|mouse|control|control (ssRNA)
RNA: GGGAGUUCUACAGUCCGACGAUCGUUCUGCAGGGAUGGUCACCACGGUGAGAGACUUCUGCUGGCUCCCUGGCAGCAGGCGGCAGCCCAUGUCUCCCGGCAGGAGUGUACGCUCCUUAGAGAUGGGCAGGGGCAGCAUGUAGCCAACAGAGGAUUGAGCAUCA
B12: chr12:103220247:103220248:+_ENSMUSG00000041781_ENSMUST00000047357|mus_mus|motif|central (ssRNA)
RNA: GGGAGUUCUACAGUCCGACGAUCCAGGGAAUCAAUAAUGUCCACAGAGAAGUGUUCAUCCCAGCCACAGUCCAACAAAAACCGGAACUCAUCAACCUGGAGAAGAUAGCAAAGAGCGGACUCUUCUUGAACCCCAGAGAGGGUCAACAGAGGAUUGAGCAUCA
B13: chr2:198351390:198351391:-_ENSG00000144381_ENST00000345042|hu_hu|hu_hu_hu_mus_False|38_78 (ssRNA)
RNA: GGGAGUUCUACAGUCCGACGAUCUCAUUCCCACCCUCCACAGAAAGGCUGCUUCUGUUCUCAUCUGUGGUGACACAGCGCUACAGUCCUGAUGCUCACAGAAUAGUAGAGAUGCCUCAGUGAUUUAAGUUGAAAGCAGGACACCAACAGAGGAUUGAGCAUCA
B14: 82123261_82123381_3180_3pUTR_ENSMUSG00000022456_ENSMUST00000023095|mouse|control|control (ssRNA)
RNA: GGGAGUUCUACAGUCCGACGAUCCAGUCUCCAGGAAAGGCUAAGACCAUAGGAUUAGGACCACUUCUGCUUGGUCCACUGAAUUGUGGGUCUUCCAUCUCUUUUUGUUUUUUGUUUGUCUGUGUGUUUGUUUUCCUAGUGACUCAACAGAGGAUUGAGCAUCA

This is one part of the list.

This assay deals with T1, UNK ZnF1-3. Nature of the assay: nsRBNS (natural sequence RNA bind-n-seq); RBNS binding buffer (assumed for nsRBNS): 25 mM Tris pH 7.5, 150 mM KCl, 3 mM MgCl2, 0.01% Triton X-100, 500 ug/ml BSA, 20 U/ml SUPERase-In, 4 C; UNK is unkempt and MSI1 is Musashi-1; names of the RNAs are library labels; protein concentration not given here; high values mean tight binding.
Turning to B1, the binding signal came out at 0.933 enrichment R.

In turn, B2 came in with a binding signal of 0.709 enrichment R.

Regarding B3, the binding signal was 1.29 enrichment R.

The molecule B4 yielded a binding signal of 1.04 enrichment R.

B5: the binding signal is 0.323 enrichment R.

Consider B6, for which the binding signal stood at 1.19 enrichment R.

For B7, the binding signal is 0.808 enrichment R.

In turn, B8 yielded a binding signal of 1.38 enrichment R.

Molecule B9 registered a binding signal of 0.905 enrichment R.

For the molecule B10, the binding signal was determined as 1.4 enrichment R.

As for B11, the binding signal amounted to 0.916 enrichment R.

Regarding B12, the binding signal came out at 1.44 enrichment R.

B13: the binding signal amounted to 1.5 enrichment R.

The molecule B14 showed a binding signal of 0.459 enrichment R.

The values above are taken from PMC12136788.
